PubChem BioAssay AID1745845 (National Center for Advancing Translational Sciences (NCATS), 2022)
Where “and” joins values, the source holds several entries; their conditions need not be identical. Equal entries are not always repeated. About 2,600 (0.72%) of roughly 360,000 compounds were called active. Inconclusive results, whose numbers are uncertain, are shown with a selection of clear calls. Calls come from the whole dose curve; as a rule, active = well fitted inhibition curve with a large enough effect; inconclusive = small, poorly fitted or top-dose-only effect; inactive = no such curve, though single readings can be large or run the other way. A potency beside an inconclusive call is a rough fit, not a confirmed value.

assay: Primary qHTS for Inhibitors of ATXN expression; details: HEK-293 ATXN2-luciferase reporter, luminescence, 24 h; activity change, negative = inhibition: at 57 µM (top of the series); note: nearly all actives have a fitted effect of over 55% in size
Summary of the method: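 qHTS (up to 57 uM final) was run with 24 h compound exposure of reporter cells at 37 °C. Each well was multiplexed: SteadyGlo luminescence measured ATXN2-luciferase expression after a fluorogenic Gly-Phe-AFC viability readout (25 uM final).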
% is set by controls: 0 for no effect and ±100 for the full control effect; potency is the fitted concentration of half-maximal effect; tags give direction and shape of the fitted curve.

Potency, inactive:
Cc1ccccc1OCC(O)Cn1c(=N)n(CCN2CCOCC2)c2ccccc21 (centres undefined)

Potency, active:
COC(=O)c1ccc2c(c1)C(C)(C)C(/C=C/c1ccc(OC)c(OC)c1OC)=[N+]2C 25.1 µM
Cc1cc(C)nc(N/N=C2/CCCC/C2=C\c2ccccc2)n1 0.947 µM
Cc1cc(C)n(-c2nc(N(c3ccccc3)c3ccccc3)nc(-n3nc(C)cc3C)n2)n1 10 µM
CC(C)(C)c1ccc(C(=O)Nc2ccc(CC(=O)O)cc2)o1 0.398 µM

Potency, inconclusive:
O=C(CCl)Nc1ccc(Sc2ccc(NC(=O)CCl)cc2)cc1 28.2 µM [inhibitor, partial curve, poor fit]
C/C(=N\NC(=O)c1ccc(-c2ccccc2)cc1)C1C(=O)c2ccccc2C1=O 16.8 µM [inhibitor, partial curve, poor fit]
CCOC(=O)c1c(NC(=O)COC(=O)c2cnccn2)sc(C)c1C 39.8 µM [inhibitor, single point]
CCc1noc(C)c1C(=O)Oc1ccc(N(C)S(=O)(=O)c2ccc(C)cc2)cc1 31.6 µM [inhibitor, partial curve, poor fit]
O=[N+]([O-])c1ccc(O)c(C2=NNC(c3ccccc3F)C2)c1 (centres undefined) 39.8 µM [inhibitor, single point]
NC(Cc1ccc(Cl)cc1)c1csc(Nc2ccc(-c3ccccc3)nn2)n1 (centres undefined) 39.8 µM [inhibitor, single point]
Cc1nc2cc(-c3ccccc3)nn2c(C)c1CCC(=O)N1CCN(c2ccc(F)cc2)CC1 7.94 µM [inhibitor, partial curve, poor fit]
O=C(C1=C[C@H](c2csc3ccccc23)C[C@H](OCc2ccc(CO)cc2)O1)N1CCN(Cc2ccccc2)CC1 39.8 µM [inhibitor, single point]
Cc1ccc(CN2C(=O)C(O)(c3c(C)[nH]c4ccccc34)c3ccccc32)cc1 (centres undefined) 25.1 µM [inhibitor, partial curve, poor fit]
CCCOC(=O)c1cccc(Nc2nc(CCC)cc(=O)[nH]2)c1 35.5 µM [inhibitor, single point]
Cc1cccc(N2C(=O)C(Oc3ccc(Cl)cc3Cl)C2C=O)c1C (centres undefined) 35.5 µM [inhibitor, partial curve, poor fit]
CCCn1ncc(CN2CCC(C(=O)Nc3cccc(-c4cccc(F)c4)c3)CC2)c1C 31.6 µM [inhibitor, single point]
Cn1c(NCCN2CCCC2)nc2cc(-c3ccsc3)sc2c1=O 10 µM [inhibitor, partial curve, poor fit]
C[C@]12CCC(=O)C=C1[C@@H]1C[C@@H]1[C@H]1[C@@H]3[C@@H]4C[C@@H]4[C@@]4(CCC(=O)O4)[C@@]3(C)CC[C@@H]12 28.2 µM [inhibitor, partial curve, poor fit]
COc1ccc(Cl)cc1NC(=O)c1c(NCc2ccc(C)o2)sc2c1CCC(C)C2 (centres undefined) 39.8 µM [inhibitor, single point]
CCN(CC)CCCNc1nc2ccccc2c2[nH]c3ccc(OC)cc3c12 8.44 µM [inhibitor, single point]
C=CCn1c(SCC(=O)Nc2sccc2C(N)=O)nc2ccc(Cl)cc2c1=O 35.5 µM [inhibitor, single point]
Cc1ccccc1N(C(=O)c1snc(C(N)=O)c1N)C(C(=O)NC1CCCCC1)c1ccc(O)cc1 (centres undefined) 28.2 µM [inhibitor, single point]
Cc1ccc(S(=O)(=O)Nc2ccc(N(C)S(=O)(=O)c3ccc(C)cc3)cc2)cc1 35.5 µM [inhibitor, partial curve, poor fit]
CCC1CCC2(CC1)NC(=O)N(CC(=O)N1CCc3ccccc31)C2=O (centres undefined) 22.4 µM [inhibitor, partial curve, poor fit]
CS(=O)(=O)N1CCN(c2ccc([N+](=O)[O-])c(NCc3ccc(Cl)cc3)c2)CC1 39.8 µM [inhibitor, partial curve, poor fit]
Cc1cc(C)n(CC(=O)N/N=C/c2ccc([N+](=O)[O-])s2)n1 2.82 µM [inhibitor, partial curve, poor fit]
COc1ccc2cc([C@H](C)C(=O)O)ccc2c1 27.3 µM [inhibitor, partial curve, poor fit]
O=C(N/N=C/c1sc(=O)n(Cc2ccc(Br)cc2)c1Cl)c1ccco1 15.8 µM [inhibitor, partial curve]
Cc1sc(NC(=O)CSc2nnc(COc3ccc(Cl)cc3)n2C)c(C#N)c1C 11.2 µM [inhibitor, partial curve, poor fit]
CN1CCN(Cc2nc3ccccc3c(=O)n2Cc2nc(-c3ccc([N+](=O)[O-])cc3)cs2)CC1 28.2 µM [inhibitor, single point]
CCOC(=O)c1c(C)n(CC(O)CN(C)C)c2cc(Br)c(OC)cc12 (centres undefined) 20 µM [inhibitor, partial curve]
O=C(O)c1c(F)c(F)c(F)c(F)c1-c1ccc(Cl)cc1 15.8 µM [inhibitor, partial curve, poor fit]
Cc1cc(C)cc(C(=O)N2CC(=O)Nc3ccc(C)cc3C2c2ccccc2)c1 (centres undefined) 35.5 µM [inhibitor, partial curve, poor fit]
COc1ccc(NC(=O)Nc2nc(C(N)C3CCCCC3)cs2)cc1 (centres undefined) 22.4 µM [inhibitor, single point]
O=c1c(Cl)c(N2CCCCC2)cnn1-c1nc2ccccc2[nH]1 2.24 µM [inhibitor, full curve, poor fit]
COc1ccccc1-c1cc(C(F)(F)F)nc(S(=O)(=O)CCCC(=O)Nc2cccnc2Cl)n1 37.7 µM [inhibitor, single point]
COC(=O)c1ccc(C(=O)OC)c(NC(=O)N2c3ccccc3Sc3ccccc32)c1 39.8 µM [inhibitor, partial curve, poor fit]
COC(=O)C(C(C)=O)C1=C/C(=N\S(=O)(=O)c2ccc(C)cc2)c2ccccc2C1=O (centres undefined) 17.8 µM [inhibitor, partial curve]
O=C(N/N=C/c1ccccc1O)C1CC(=O)N(c2ccc(F)cc2)C1 (centres undefined) 14.1 µM [inhibitor, partial curve, poor fit]
Oc1ccc(Cl)cc1Sc1cc(Cl)ccc1O 28.2 µM [inhibitor, partial curve, poor fit] and 28.2 µM [inhibitor, single point]
CCCC(Oc1ccc(Br)cc1)c1nc2c3cc(OC)c(OC)cc3nc(=S)n2[nH]1 (centres undefined) 22.4 µM [inhibitor, single point]
COc1cc(-c2cc3nc(NCCOc4ccccc4)ccn3n2)cc(OC)c1OC 28.2 µM [inhibitor, single point]
c1ccc(C(c2cccs2)c2c[nH]c3ccccc23)cc1 (centres undefined) 39.8 µM [inhibitor, single point]
O=C1C=C(N2CCN(c3ccccn3)CC2)C(=O)c2c(O)ccc(O)c21 33.6 µM [inhibitor, single point]
CCCCC[n+]1cccc2c3ccccc3ccc21 3.98 µM [inhibitor, full curve]
Cn1c(-c2cccc(OCc3ccccc3)c2)nc2c1c(=O)[nH]c(=O)n2Cc1ccccc1 5.01 µM [inhibitor, full curve]

Activity change, negative = inhibition, inconclusive:
CCCCn1c(=O)nc2n(-c3ccc(OC)cc3)c3ccccc3cc-2c1=O -39.4% [inhibitor]

Activity change, negative = inhibition, inactive:
CCOC(=O)c1c(NC(=O)c2cc(-c3ccccc3OC)on2)sc(C)c1C 8.3%
CCOC(=O)Cc1ccc(Nc2nc(NC)nc3ccsc23)cc1 -16.3%
COc1ccc(NC(=O)CC2C(=O)N(c3ccccc3)C(=O)N2CCc2cccs2)cc1 (centres undefined) -4.22%
O=[N+]([O-])c1ccc(Nc2ccccc2-c2ccccc2)c2nonc12 -28.6%
Cc1ccccc1Cn1nc(C)c(NC(=O)c2sc3ccccc3c2Cl)c1C -25.1%
CC1(C)CC(=O)C(C=NCCCN2CCOCC2)=C(O)C1 -1.35%
Cc1cc(C)cc(NC(=O)Nc2ccccc2N2CCCCC2)c1 -4.99%
O=C1c2cccc3c(N4CCCCC4)ccc(c23)C(=O)N1CCO -11.5%
Cc1cccc(NC(=O)C2CCN(S(=O)(=O)c3ccc4c(c3)NC(=O)CO4)CC2)c1C -1.75%
CCOc1cnn(-c2cc(Oc3ccc(C)cc3)ncn2)c(=O)c1Cl 2.79%
Cc1cccc(-c2cc3nc4c(c(N5CCCC(O)C5)n3n2)CCC4)c1 (centres undefined) -3.85%
CCn1ccc2cc(S(=O)(=O)N3CCCN(C(=O)Nc4ccccc4F)CC3)ccc21 -4.9%
COc1cccc(Cn2c(SCC(=O)N3CCN(c4ccc(F)cc4)CC3)nc3ccccc32)c1 2.84%
CSc1ccccc1OCc1cc(C(=O)N(C)Cc2nonc2C)no1 39%
Cc1cc(NC(c2nnc(-c3ccccc3)o2)c2ccccc2F)ccc1Br (centres undefined) 10.8%
O=c1[nH]nc(-c2ccc(NCCO)c([N+](=O)[O-])c2)c2ccccc12 13.8%
